“And” between values parts separate entries of the source, which are not always exact repeats. Identical values can stand only once. Screen size: about 360,000 compounds; about 6,000 (1.7%) were called active. The inconclusive results got no clear call from the source; some entries with a clear call stand among them for comparison. Calls come from the whole dose curve; as a rule, active = well fitted cell-killing curve with a large enough effect; inconclusive = small, poorly fitted or top-dose-only effect, or effect the other way; inactive = flat fitted curve, though single readings scatter. No potency is given beside an inconclusive call; the fits are too rough.
Test: qHTS for induction of synthetic lethality in tumor cells producing 2HG: qHTS for the HT-1080-NT fibrosarcoma cell line;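 note: NT is the 2HG producing partner of a matched IDH1 knockdown line; nearly all actives have a fitted effect of over 55% in size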;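 for activity, negative = less viability: 0% = DMSO-treated cells and -100% = media-only wells without cells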
Settings: HT-1080-NT fibrosarcoma viability, CellTiter-Glo ATP luminescence, 48 h; activity, negative = less viability: at 46.1 µM (top of the series) unless noted
Summary of the method: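 Read-out is CellTiter-Glo luminescence after 10 minutes at room temperature, following 48 hours' compound treatment of HT-1080-NT cells (750 cells/well, RPMI, 5% FBS, 37 degrees C).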
Potency is the fitted concentration of half-maximal effect; tags give direction and shape of the fitted curve.

Question: Which Potency does the source give for `CCn1c(COc2ccccc2C)nc2ccccc21` here?
Answer: inactive

Question: For `Oc1c(CN2CCOCC2)cc(COCc2ccccc2)c2cccnc12`, which Potency is on record?
Answer: inconclusive [cytotoxic, partial curve, poor fit]

Question: For `CC(=O)Nc1ccccc1NS(=O)(=O)c1ccc(Cl)cc1`, which Potency is on record?
Answer: inactive

Question: For `COc1ccccc1Oc1ccc(Oc2ccccc2OC)cc1`, which Potency is on record?
Answer: inconclusive [cytotoxic, partial curve]

Question: For `CCCOc1ccc(C(=O)NC(=S)Nc2nc(C)c(C(=O)N(C)C)s2)cc1`, which Potency is on record?
Answer: inconclusive [cytotoxic, single point]

Question: Which Potency does the source give for `COC1=CC(=O)C=C(OC)C1=O` here?
Answer: active: 18.4 µM

Question: For `Cc1cc(C)c2nc(-c3ccccn3)cc(C(=O)Nc3ccc(S(=O)(=O)Nc4cc(C)on4)cc3)c2c1`, which Potency is on record?
Answer: inconclusive [cytotoxic, single point]

Question: Which Potency does the source give for `COC(=O)c1csc(-c2ccc(CO)o2)n1` here?
Answer: inconclusive [rising, single point]

Question: With `CC1CC(C)CN(c2ncnc3c2cnn3Cc2ccc(Cl)cc2)C1` (centres undefined) as the compound, how does the Potency read?
Answer: inconclusive [cytotoxic, single point]

Question: With `Cc1nc(C)c(C(=O)Nc2ccc(Oc3ccccc3)cc2)o1` as the compound, how does the Potency read?
Answer: inconclusive [cytotoxic, single point]

Question: Which Potency does the source give for `Cc1nc(C)c(C(=O)NCc2ccccc2Cl)o1` here?
Answer: inactive

Question: With `COc1cc(CNCCN2CCOCC2)ccc1OCc1ccc(Cl)cc1` as the compound, how does the Potency read?
Answer: inconclusive [cytotoxic, partial curve]

Question: With `CC(C)(C)NCC(O)COc1cccc2c1C[C@H](O)[C@H](O)C2` (some centres undefined) as the compound, how does the Potency read?
Answer: inconclusive [rising, partial curve, poor fit]

Question: Which Potency does the source give for `CCN1CCN(C(=S)c2ccc(-c3ccccc3)cc2)CC1` here?
Answer: inactive

Question: Which Potency does the source give for `C=CCc1cc(C=O)cc(OCC)c1O` here?
Answer: inactive

Question: For `CN1CCN(c2ccc(NC(=O)c3cccc(OCc4ccccc4)c3)cc2)CC1`, which Potency is on record?
Answer: active: 20.6 µM

Question: Which Potency does the source give for `Clc1ccc(C2=Nn3c(nnc3-c3n[nH]c4c3CCC4)SC2)cc1Cl` here?
Answer: inactive

Question: With `C[C@H](O)[C@@H]1CN2CCc3c([nH]c4ccc(-c5ccc6c(c5)OCO6)cc34)[C@@H]2C[C@@H]1N(C)C(=O)NC1CCCCC1` as the compound, how does the Potency read?
Answer: inactive

Question: With `Cc1c(C(=O)N/N=C/c2ccccc2)[nH]c2c([N+](=O)[O-])cccc12` as the compound, how does the Potency read?
Answer: inconclusive [cytotoxic, full curve]

Question: Which Potency does the source give for `COc1ccccc1Oc1cc(C#N)c(C#N)cc1-n1nnc2ccccc21` here?
Answer: inconclusive [cytotoxic, single point]

Question: Which Potency does the source give for `c1ccc(CSC2=NNC(c3ccccn3)S2)cc1` (centres undefined) here?
Answer: inconclusive [cytotoxic, full curve]

Question: For `Cc1ccc(N=c2oc3cc(O)ccc3cc2C(N)=O)cc1`, which Potency is on record?
Answer: inconclusive [cytotoxic, single point]

Question: With `c1ccc2[nH]c(-c3nc4ccccc4[nH]3)nc2c1` as the compound, how does the Potency read?
Answer: inconclusive [cytotoxic, single point]

Question: For `CSc1ncnc2c1ncn2CC(=O)C1CCC2C3CCC4=CC(=O)CCC4(C)C3CCC12C` (centres undefined), which Potency is on record?
Answer: inconclusive [cytotoxic, single point]

Question: For `Cc1cccc(-n2ncc3c2CCCC3NC(=O)C2CCOCC2)c1C` (centres undefined), which Potency is on record?
Answer: inconclusive [cytotoxic, single point]

Question: With `O=C1[C@@H]2Cc3c([nH]c4ccccc34)C(c3cccc(Br)c3)N2C(=O)CN1C1CCN(Cc2ccccc2)CC1` (some centres undefined) as the compound, how does the Potency read?
Answer: inconclusive [cytotoxic, single point]

Question: With `O=C(Cc1sc(Nc2ccccc2)nc1-c1ccccc1)NCc1ccccc1` as the compound, how does the Potency read?
Answer: inconclusive [cytotoxic, single point]

Question: Which Potency does the source give for `CSc1nc(-c2ccccc2)nc(N2CCN(C)CC2)c1C(C)=O` here?
Answer: inconclusive [cytotoxic, partial curve]

Question: Which Potency does the source give for `CN1CCN(S(=O)(=O)c2ccc(C(F)(F)F)cc2)C(c2ccccc2)C1` (centres undefined) here?
Answer: inactive

Question: For `Cc1ccc(-n2[nH]c(C)c(/C=N/c3ccccn3)c2=O)cc1`, which Potency is on record?
Answer: active: 7.08 µM

Question: With `O=C(Nc1ccc2nc(SCc3ccc(Cl)cc3)sc2c1)c1ccccc1C(=O)N1CCOCC1` as the compound, how does the Potency read?
Answer: inactive

Question: Which Potency does the source give for `COc1ccc(/C=C/C(=O)c2c(O)ccc3c(C)cc(=O)oc23)cc1` here?
Answer: inconclusive [cytotoxic, single point]

Question: For `CN(C)c1ccc(CNC(=O)C2(C)Cc3c(-c4cccc(C(F)(F)F)c4)ccnc3O2)cc1` (centres undefined), which Potency is on record?
Answer: inconclusive [cytotoxic, partial curve, poor fit]

Question: For `CCN1CCN(CC(=O)c2ccc(OC)cc2)CC1`, which Potency is on record?
Answer: inactive

Question: With `Cc1nn(C(=O)c2c([N+](=O)[O-])cnn2C)c(C)c1Cl` as the compound, how does the Potency read?
Answer: inactive

Question: For `CCOc1ccccc1N1CCN(C(=O)C2c3ccccc3Oc3ccccc32)CC1`, which Potency is on record?
Answer: inconclusive [cytotoxic, single point]

Question: For `COc1ccc(/C=C/C(=O)Nc2ccc3nc4n(c(=O)c3c2)CCCC4)cc1OC`, which activity, negative = less viability is on record?
Answer: inconclusive: -8.6% [cytotoxic]

Question: Which Potency does the source give for `COc1ccc(/C=C/C(=O)Nc2ccc(C(N)=O)cc2)cc1OC` here?
Answer: inconclusive [cytotoxic, single point]

Question: For `O=C(N/N=C/c1ccc(OC2CSC2)cc1)c1ccccc1`, which Potency is on record?
Answer: inconclusive [cytotoxic, single point]

Question: For `COc1cc(C2Nc3ccc4ncccc4c3C3=C2C(=O)CCC3)cc(OC)c1O` (centres undefined), which Potency is on record?
Answer: active: 16.4 µM

Question: Which Potency does the source give for `COc1ccc(CNCc2ccc(F)cc2)c(OC)c1` here?
Answer: inactive

Question: With `CN(CC(=O)NCC(=O)Nc1ccc(F)cc1)C1CCS(=O)(=O)C1` (centres undefined) as the compound, how does the Potency read?
Answer: inactive

Question: With `O=C1NC(Cc2ccc(O)cc2)c2nc3cc(F)c(F)cc3c(=O)n2-c2ncccc21` (centres undefined) as the compound, how does the Potency read?
Answer: inconclusive [cytotoxic, single point]

Question: For `COc1ccc(-c2ccc(C(=O)NCc3cccs3)c3occc23)c(C)c1`, which Potency is on record?
Answer: inconclusive [cytotoxic, single point]

Question: For `O=C(Nc1ccc2c(c1)OCO2)c1ccc(COc2ccc3c(c2)CCC3)o1`, which Potency is on record?
Answer: inconclusive [cytotoxic, single point]

Question: With `CC(C)c1ccccc1NC(=O)C1CCCN(C(=O)c2ccc(Cl)cc2)C1` (centres undefined) as the compound, how does the Potency read?
Answer: inactive

Question: Which Potency does the source give for `COC(=O)c1cc(Br)ccc1NC(=O)Nc1ccccc1` here?
Answer: inconclusive [rising, single point]

Question: With `Cc1ccccc1N1CCN(C2=NC(=O)/C(=C\c3cccs3)S2)CC1` as the compound, how does the Potency read?
Answer: inconclusive [cytotoxic, single point]

Question: Which Potency does the source give for `CCc1ccc(-n2nnnc2SCC(=O)Nc2ccc(NC(C)=O)cc2)cc1` here?
Answer: inconclusive [cytotoxic, single point]

Question: Which Potency does the source give for `CC1(C)Oc2ccc(NC(=O)c3ccco3)cc2O1` here?
Answer: inactive

Question: For `Cc1ccc(C)c(S(=O)(=O)N2CCN(C(=O)CN3C(=O)C4CC=CCC4C3=O)CC2)c1` (centres undefined), which Potency is on record?
Answer: inactive

Question: With `COc1ccccc1CC(=O)Nc1ccc(-c2noc(COc3ccc(Br)cc3)n2)cc1` as the compound, how does the Potency read?
Answer: inconclusive [cytotoxic, partial curve]

Question: Which Potency does the source give for `C=CC(=O)Nc1cccc(Nc2nc(N[C@H]3CC[C@H](N(C)C)CC3)nc3c2ncn3C(C)C)c1` here?
Answer: inconclusive [cytotoxic, full curve]

Question: With `CC(=O)Nc1ccc(OCC(O)Cn2c3ccccc3c3ccccc32)c(C)c1` (centres undefined) as the compound, how does the Potency read?
Answer: inconclusive [cytotoxic, single point]

Question: With `O=C(Nc1cccc2ncccc12)c1cc([N+](=O)[O-])ccc1Cl` as the compound, how does the Potency read?
Answer: inconclusive [cytotoxic, full curve, poor fit]

Question: Which Potency does the source give for `COc1ccc(C(=O)Nc2ccc(O)c3c(=O)cc(-c4cccc(Cl)c4)oc23)cc1` here?
Answer: inconclusive [cytotoxic, single point]

Question: For `Cc1ccc(NS(=O)(=O)c2ccc(-c3csc(C)n3)s2)c(C)c1`, which Potency is on record?
Answer: inconclusive [cytotoxic, partial curve]

Question: For `Cc1cc2c(C)cc(=O)[nH]c2cc1NC(=O)CCl`, which Potency is on record?
Answer: inconclusive [cytotoxic, single point]

Question: With `Cc1ccc(Cl)cc1NC1=C/C(=N\S(=O)(=O)c2cccs2)c2ccccc2C1=O` as the compound, how does the Potency read?
Answer: active: 6.51 µM and active: 3.66 µM

Question: For `O=C(c1ccc(NS(=O)(=O)c2ccccc2)cc1)N1CCOCC1`, which Potency is on record?
Answer: inactive

Question: Which Potency does the source give for `COc1ccccc1NC(=O)N1CCN(c2ccc3nnc(-c4ccc(F)cc4)n3n2)CC1` here?
Answer: active: 25.9 µM

Question: With `C[C@H](CO)N1C[C@H](C)[C@@H](CN(C)Cc2ccccc2)Oc2c(NC(=O)Cc3ccccc3)cccc2C1=O` as the compound, how does the Potency read?
Answer: inconclusive [cytotoxic, single point]

Question: Which Potency does the source give for `C=CC[C@@H](CC(=O)N[C@H](CO)Cc1ccccc1)C(=O)N[C@H](COC(=O)[C@H](CC=C)CC(=O)OC(C)(C)C)Cc1c[nH]c2ccccc12` here?
Answer: inconclusive [cytotoxic, single point]

Question: For `COc1ccccc1-c1cc(C(=O)Nc2cc(C)n(Cc3ccc(Cl)cc3)n2)no1`, which Potency is on record?
Answer: inactive

Question: Which Potency does the source give for `O=C(CN(C1CCCCC1)S(=O)(=O)c1ccc(Cl)cc1)NCc1cccnc1` here?
Answer: inactive

Question: With `Cc1cc(N(CCO)CCO)ccc1N=Nc1cc(F)ccc1F` as the compound, how does the Potency read?
Answer: inconclusive [cytotoxic, single point]

Question: Which Potency does the source give for `COC(=O)[C@]12CCCCC=C1N(CCc1ccc(OC)c(OC)c1)C(=O)[C@H](CC(=O)NCC13CC4CC(CC(C4)C1)C3)C2` here?
Answer: inconclusive [cytotoxic, single point]

Question: For `CC(C)=CC[N+]1(C)CCCCC1`, which Potency is on record?
Answer: inactive

Question: With `Cc1ccc(NS(=O)(=O)c2cc(C(=O)NCCSC3CCCCC3)ccc2C)cc1` as the compound, how does the Potency read?
Answer: inconclusive [cytotoxic, single point]
